# From the supplement of paper PMC8728848
# Some of the results follow.
# B1: NKR-PIC (Mus musculus) (protein)
# chain: GTGQKPSREKCCVFIQENLNKTTDCSVNLECPQDWLLHRDKCFHVSQVSNTWEEGQADCGRKGATLLLIQDQEELRFLLDSIKEKYNSFWIGLRFTLPDMNWKWINGTTFNSDVLKITGVTENGSCASILGDKVTPESCASDNRWICQKELNHETPSNDSGT
# Assays:
# Experiment in all cases: glycan array binding signal (z-score within array); higher = stronger binding
# Details in all cases: glycan notation: IUPAC condensed, linker removed
# [1] = target: GlcNAc(a1-6)Gal(b1-4)GlcNAc
# Summary of the method: (§1)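 Glycan array data came from 3228 arrays in the Consortium for Functional Glycomics database, and only arrays with an available protein sequence were kept. Glycan names were put into IUPAC-condensed notation, and columns mapping to the same glycan were averaged. The binding signal is a within-array Z-score, averaged across arrays of one protein sequence run at different concentrations or buffers and across linkers. A negative Z-score can be read as non-binding.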
# [2] = target: GlcNAc(b1-2)Gal(b1-3)GalNAc
# Summary of the method: as §1
# [3] = target: GlcNAc(b1-2)Man(a1-3)[GlcNAc(b1-2)Man(a1-6)]Man(b1-4)GlcNAc(b1-4)GlcNAc
# Summary of the method: as §1
# [4] = target: GlcNAc(b1-2)Man(a1-3)[GlcNAc(b1-2)Man(a1-6)]Man(b1-4)GlcNAc(b1-4)[Fuc(a1-6)]GlcNAc
# Summary of the method: as §1
# [5] = target: GlcNAc(b1-2)Man(a1-3)[GlcNAc(b1-4)][GlcNAc(b1-2)Man(a1-6)]Man(b1-4)GlcNAc(b1-4)GlcNAc
# Summary of the method: as §1
# [6] = target: GlcNAc(b1-2)Man(a1-3)[GlcNAc(b1-4)][GlcNAc(b1-2)Man(a1-6)]Man(b1-4)GlcNAc(b1-4)[Fuc(a1-6)]GlcNAc
# Summary of the method: as §1
# [7] = target: GlcNAc(b1-2)[GlcNAc(b1-4)]Man(a1-3)[GlcNAc(b1-2)Man(a1-6)]Man(b1-4)GlcNAc(b1-4)GlcNAc
# Summary of the method: as §1
# [8] = target: GlcNAc(b1-2)[GlcNAc(b1-4)]Man(a1-3)[GlcNAc(b1-4)][GlcNAc(b1-2)Man(a1-6)]Man(b1-4)GlcNAc(b1-4)GlcNAc
# Summary of the method: as §1
# [9] = target: GlcNAc(b1-2)[GlcNAc(b1-4)]Man(a1-3)[GlcNAc(b1-4)][GlcNAc(b1-2)[GlcNAc(b1-6)]Man(a1-6)]Man(b1-4)GlcNAc(b1-4)GlcNAc
# Summary of the method: as §1
# [10] = target: GlcNAc(b1-2)[GlcNAc(b1-4)]Man(a1-3)[GlcNAc(b1-4)][GlcNAc(b1-2)[GlcNAc(b1-6)]Man(a1-6)]Man(b1-4)GlcNAc(b1-4)[Fuc(a1-6)]GlcNAc
# Summary of the method: as §1
# [11] = target: GlcNAc(b1-2)[GlcNAc(b1-6)]Man(a1-6)[GlcNAc(b1-2)Man(a1-3)]Man(b1-4)GlcNAc(b1-4)GlcNAc
# Summary of the method: as §1
# [12] = target: GlcNAc(b1-2)[GlcNAc(b1-6)]Man(a1-6)[GlcNAc(b1-2)Man(a1-3)]Man(b1-4)GlcNAc(b1-4)[Fuc(a1-6)]GlcNAc
# Summary of the method: as §1
# [13] = target: GlcNAc(b1-2)[GlcNAc(b1-6)]Man(a1-6)[GlcNAc(b1-4)][GlcNAc(b1-2)Man(a1-3)]Man(b1-4)GlcNAc(b1-4)GlcNAc
# Summary of the method: as §1
# [14] = target: GlcNAc(b1-3)Fuc
# Summary of the method: as §1
# [15] = target: GlcNAc(b1-3)Gal
# Summary of the method: as §1
# [16] = target: GlcNAc(b1-3)Gal(b1-3)GalNAc
# Summary of the method: as §1
# [17] = target: GlcNAc(b1-3)Gal(b1-4)Glc
# Summary of the method: as §1
# [18] = target: GlcNAc(b1-3)Gal(b1-4)GlcNAc
# Summary of the method: as §1
# [19] = target: GlcNAc(b1-3)Gal(b1-4)GlcNAc(b1-2)Man(a1-3)[GlcNAc(b1-3)Gal(b1-4)GlcNAc(b1-2)Man(a1-6)]Man(b1-4)GlcNAc(b1-4)GlcNAc
# Summary of the method: as §1
# [20] = target: GlcNAc(b1-3)Gal(b1-4)GlcNAc(b1-2)Man(a1-3)[GlcNAc(b1-3)Gal(b1-4)GlcNAc(b1-2)Man(a1-6)]Man(b1-4)GlcNAc(b1-4)[Fuc(a1-6)]GlcNAc
# Summary of the method: as §1
# [21] = target: GlcNAc(b1-3)Gal(b1-4)GlcNAc(b1-2)[GlcNAc(b1-3)Gal(b1-4)GlcNAc(b1-6)]Man(a1-6)[GlcNAc(b1-3)Gal(b1-4)GlcNAc(b1-2)Man(a1-3)]Man(b1-4)GlcNAc(b1-4)GlcNAc
# Summary of the method: as §1
# [22] = target: GlcNAc(b1-3)Gal(b1-4)GlcNAc(b1-3)Gal(b1-4)GlcNAc
# Summary of the method: as §1
# [23] = target: GlcNAc(b1-3)Gal(b1-4)GlcNAc(b1-3)Gal(b1-4)GlcNAc(b1-2)Man(a1-3)[GlcNAc(b1-3)Gal(b1-4)GlcNAc(b1-3)Gal(b1-4)GlcNAc(b1-2)Man(a1-6)]Man(b1-4)GlcNAc(b1-4)GlcNAc
# Summary of the method: as §1
# [24] = target: GlcNAc(b1-3)Gal(b1-4)GlcNAc(b1-3)Gal(b1-4)GlcNAc(b1-2)Man(a1-3)[GlcNAc(b1-3)Gal(b1-4)GlcNAc(b1-3)Gal(b1-4)GlcNAc(b1-2)Man(a1-6)]Man(b1-4)GlcNAc(b1-4)[Fuc(a1-6)]GlcNAc
# Summary of the method: as §1
# [25] = target: GlcNAc(b1-3)Gal(b1-4)GlcNAc(b1-3)Gal(b1-4)GlcNAc(b1-2)[GlcNAc(b1-3)Gal(b1-4)GlcNAc(b1-3)Gal(b1-4)GlcNAc(b1-6)]Man(a1-6)[GlcNAc(b1-3)Gal(b1-4)GlcNAc(b1-3)Gal(b1-4)GlcNAc(b1-2)Man(a1-3)]Man(b1-4)GlcNAc(b1-4)[Fuc(a1-6)]GlcNAc
# Summary of the method: as §1
# [26] = target: GlcNAc(b1-3)Gal(b1-4)GlcNAc(b1-3)Gal(b1-4)GlcNAc(b1-3)Gal(b1-4)GlcNAc(b1-2)Man(a1-3)[GlcNAc(b1-3)Gal(b1-4)GlcNAc(b1-3)Gal(b1-4)GlcNAc(b1-3)Gal(b1-4)GlcNAc(b1-2)Man(a1-6)]Man(b1-4)GlcNAc(b1-4)GlcNAc
# Summary of the method: as §1
# [27] = target: GlcNAc(b1-3)Gal(b1-4)GlcNAc(b1-3)Gal(b1-4)GlcNAc(b1-3)Gal(b1-4)GlcNAc(b1-2)Man(a1-3)[GlcNAc(b1-3)Gal(b1-4)GlcNAc(b1-3)Gal(b1-4)GlcNAc(b1-3)Gal(b1-4)GlcNAc(b1-2)Man(a1-6)]Man(b1-4)GlcNAc(b1-4)[Fuc(a1-6)]GlcNAc
# Summary of the method: as §1
# [28] = target: GlcNAc(b1-3)Gal(b1-4)GlcNAc(b1-3)Gal(b1-4)GlcNAc(b1-3)Gal(b1-4)GlcNAc(b1-2)[GlcNAc(b1-3)Gal(b1-4)GlcNAc(b1-3)Gal(b1-4)GlcNAc(b1-3)Gal(b1-4)GlcNAc(b1-6)]Man(a1-6)[GlcNAc(b1-3)Gal(b1-4)GlcNAc(b1-3)Gal(b1-4)GlcNAc(b1-3)Gal(b1-4)GlcNAc(b1-2)Man(a1-3)]Man(b1-4)GlcNAc(b1-4)[Fuc(a1-6)]GlcNAc
# Summary of the method: as §1
# [29] = target: GlcNAc(b1-3)Gal(b1-4)GlcNAc(b1-3)Gal(b1-4)GlcNAc(b1-3)Gal(b1-4)GlcNAc(b1-3)Gal(b1-4)GlcNAc(b1-2)Man(a1-3)[GlcNAc(b1-3)Gal(b1-4)GlcNAc(b1-3)Gal(b1-4)GlcNAc(b1-3)Gal(b1-4)GlcNAc(b1-3)Gal(b1-4)GlcNAc(b1-2)Man(a1-6)]Man(b1-4)GlcNAc(b1-4)GlcNAc
# Summary of the method: as §1
# [30] = target: GlcNAc(b1-3)Gal(b1-4)GlcNAc(b1-3)Gal(b1-4)GlcNAc(b1-3)Gal(b1-4)GlcNAc(b1-3)Gal(b1-4)GlcNAc(b1-2)Man(a1-3)[GlcNAc(b1-3)Gal(b1-4)GlcNAc(b1-3)Gal(b1-4)GlcNAc(b1-3)Gal(b1-4)GlcNAc(b1-3)Gal(b1-4)GlcNAc(b1-2)Man(a1-6)]Man(b1-4)GlcNAc(b1-4)[Fuc(a1-6)]GlcNAc
# Summary of the method: as §1
# [31] = target: GlcNAc(b1-3)Gal(b1-4)GlcNAc(b1-3)Gal(b1-4)GlcNAc(b1-3)Gal(b1-4)GlcNAc(b1-3)Gal(b1-4)GlcNAc(b1-2)[GlcNAc(b1-3)Gal(b1-4)GlcNAc(b1-3)Gal(b1-4)GlcNAc(b1-3)Gal(b1-4)GlcNAc(b1-3)Gal(b1-4)GlcNAc(b1-6)]Man(a1-6)[GlcNAc(b1-3)Gal(b1-4)GlcNAc(b1-3)Gal(b1-4)GlcNAc(b1-3)Gal(b1-4)GlcNAc(b1-3)Gal(b1-4)GlcNAc(b1-2)Man(a1-3)]Man(b1-4)GlcNAc(b1-4)[Fuc(a1-6)]GlcNAc
# Summary of the method: as §1
# [32] = target: GlcNAc(b1-3)Gal(b1-4)GlcNAc(b1-3)Gal(b1-4)GlcNAc(b1-3)GalNAc
# Summary of the method: as §1
# [33] = target: GlcNAc(b1-3)Gal(b1-4)GlcNAc(b1-3)GalNAc
# Summary of the method: as §1
# [34] = target: GlcNAc(b1-3)Gal(b1-4)GlcNAc(b1-3)[GlcNAc(b1-3)Gal(b1-4)GlcNAc(b1-3)]GalNAc
# Summary of the method: as §1
# [35] = target: GlcNAc(b1-3)Gal(b1-4)GlcNAc(b1-6)[Gal(b1-3)]GalNAc
# Summary of the method: as §1
# [36] = target: GlcNAc(b1-3)Gal(b1-4)GlcNAc(b1-6)[GlcNAc(b1-3)Gal(b1-3)]GalNAc
# Summary of the method: as §1
# [37] = target: GlcNAc(b1-3)Gal(b1-4)GlcNAc(b1-6)[GlcNAc(b1-3)]Gal(b1-4)GlcNAc
# Summary of the method: as §1
# [38] = target: GlcNAc(b1-3)GalNAc
# Summary of the method: as §1
# [39] = target: GlcNAc(b1-3)Man
# Summary of the method: as §1
# [40] = target: GlcNAc(b1-3)[GlcNAc(b1-4)][GlcNAc(b1-6)]GlcNAc
# Summary of the method: as §1
# [41] = target: GlcNAc(b1-3)[GlcNAc(b1-6)]Gal(b1-4)GlcNAc
# Summary of the method: as §1
# [42] = target: GlcNAc(b1-3)[GlcNAc(b1-6)]GalNAc
# Summary of the method: as §1
# [43] = target: GlcNAc(b1-4)Gal(b1-4)GlcNAc
# Summary of the method: as §1
# [44] = target: GlcNAc(b1-4)GlcNAc
# Summary of the method: as §1
# [45] = target: GlcNAc(b1-4)GlcNAc(b1-4)GlcNAc
# Summary of the method: as §1
binder,measurement,setting,value
B1,glycan array binding signal (z-score),[1],-0.328
same,glycan array binding signal (z-score),[2],-0.07
same,glycan array binding signal (z-score),[3],-0.317
same,glycan array binding signal (z-score),[4],-0.287
same,glycan array binding signal (z-score),[5],3.99
same,glycan array binding signal (z-score),[6],3.73
same,glycan array binding signal (z-score),[7],-0.353
same,glycan array binding signal (z-score),[8],1.63
same,glycan array binding signal (z-score),[9],0.235
same,glycan array binding signal (z-score),[10],-0.231
same,glycan array binding signal (z-score),[11],-0.319
same,glycan array binding signal (z-score),[12],-0.368
same,glycan array binding signal (z-score),[13],1.57
same,glycan array binding signal (z-score),[14],0.686
same,glycan array binding signal (z-score),[15],-0.247
same,glycan array binding signal (z-score),[16],-0.329
same,glycan array binding signal (z-score),[17],-0.282
same,glycan array binding signal (z-score),[18],1.7
same,glycan array binding signal (z-score),[19],0.533
same,glycan array binding signal (z-score),[20],0.804
same,glycan array binding signal (z-score),[21],1.88
same,glycan array binding signal (z-score),[22],1.75
same,glycan array binding signal (z-score),[23],1.31
same,glycan array binding signal (z-score),[24],1.59
same,glycan array binding signal (z-score),[25],1.86
same,glycan array binding signal (z-score),[26],1.55
same,glycan array binding signal (z-score),[27],1.53
same,glycan array binding signal (z-score),[28],1.96
same,glycan array binding signal (z-score),[29],2.76
same,glycan array binding signal (z-score),[30],1.31
same,glycan array binding signal (z-score),[31],1.81
same,glycan array binding signal (z-score),[32],-0.361
same,glycan array binding signal (z-score),[33],-0.306
same,glycan array binding signal (z-score),[34],-0.181
same,glycan array binding signal (z-score),[35],-0.312
same,glycan array binding signal (z-score),[36],-0.336
same,glycan array binding signal (z-score),[37],3.36
same,glycan array binding signal (z-score),[38],-0.321
same,glycan array binding signal (z-score),[39],-0.325
same,glycan array binding signal (z-score),[40],-0.116
same,glycan array binding signal (z-score),[41],1.2
same,glycan array binding signal (z-score),[42],-0.12
same,glycan array binding signal (z-score),[43],-0.249
same,glycan array binding signal (z-score),[44],3.11
same,glycan array binding signal (z-score),[45],4.83
